Some of the results follow. A value given as a limit tells only on which side of the number the result lay.

For 153 variants, enrichment ratio results are on record in a collection of fitness landscapes (doi:10.1126/science.1257360).

B1: PhoQ; a variant is named by its letters at X, in order, P23837 (parent)
chain: MKKLLRLFFPLSLRVRFLLATAAVVLVLSLAYGMVALIGYSVSFDKTTFRLLRGESNLFYTLAKWENNKLHVELPENIDKQSPTMTLIYDENGQLLWAQRDVPWLMKMIQPDWLKSNGFHEIEADVNDTSLLLSGDHSIQQQLQEVREDDDDAEMTHSVAVNVYPATSRMPKLTIVVVDTIPVELKSSYMVWSWFIYVLSANLLLVIPLLWVAAWWSLRPIEALAKEVRELEEHNRELLNPATTRELTSLVRNLNRLLKSERERYDKYRTTLTDLTHSLKTPLXXLQXXLRSLRSEKMSVSDAEPVMLEQISRISQQIGYYLHRASMRGGTLLSRELHPVAPLLDNLTSALNKVYQRKGVNISLDISPEISFVGEQNDFVEVMGNVLDNACKYCLEFVEISARQTDEHLYIVVEDDGPGIPLSKREVIFDRGQRVDTLRPGQGVGLAVAREITEQYEGKIVAGESMLGGARMEVIFGRQHSAPKDE

This test covers variants of B1. The test can be described thus: enrichment ratio after two sorts for PhoP signalling (ratio (wild type AVST 3.29)); higher = more functional. To be noted: with PhoP (E. coli).
As for TMHQ, the enrichment ratio was determined as 15.4.
In the case of FTRD, the enrichment ratio was at most 0.25.
The result for DRYY reads at most 0.25; that for NAPA, at most 0.25; that for AATR, at most 0.25.
The result for VMQP reads at most 0.25; that for FNWV, at most 0.25.
Take GQQI: the enrichment ratio was at most 0.25.
The same measure for NISY: at most 0.25.
The result for RKDN reads at most 0.25; that for HWNQ, at most 0.25; that for PTTV, at most 0.25.
For the variant DSSQ, the enrichment ratio was at most 0.25.
In the case of YTGI, the enrichment ratio is at most 0.25.
The result for SRKK reads 1.49; that for RTCW, at most 0.25; that for PRCS, at most 0.25.
Regarding PMWK, the enrichment ratio is at most 0.25.
The result for IPRQ reads at most 0.25; that for SDRD, at most 0.25; that for FTIN, at most 0.25.
The same measure for PDYE: at most 0.25; for KQQR: at most 0.25; for DGSA: at most 0.25.
For LTMV, the enrichment ratio was at most 0.25.
Regarding IVRC, the enrichment ratio is at most 0.25.
The same measure for QVPS: at most 0.25; for HFLY: at most 0.25; for GGFM: at most 0.25.
The same measure for LEQR: at most 0.25.
The same measure for WCPT: at most 0.25.
With TSQK, the enrichment ratio was at most 0.25.
For QRRG, the enrichment ratio was at most 0.25.
The result for AGPP reads at most 0.25.
The same measure for WYCM: at most 0.25; for LYEV: at most 0.25; for HQLK: at most 0.25.
With HIIG, the enrichment ratio was at most 0.25.
The same measure for LTIK: at most 0.25; for DQGA: at most 0.25; for MQSV: at most 0.25.
For the variant NGWG, the enrichment ratio is at most 0.25.
The result for MSGS reads 5.05; that for SWLN, at most 0.25; that for TTML, 28.8.
The same measure for KQAM: at most 0.25.
Take PTWQ: the enrichment ratio is at most 0.25.
The same measure for NNVA: at most 0.25; for SEWV: 0.784; for IHIA: at most 0.25.
As for RGSR, the enrichment ratio was at most 0.25.
On to RQEF, for which the enrichment ratio is at most 0.25.
In the case of TYLR, the enrichment ratio is at most 0.25.
The result for KRTT reads at most 0.25; that for ECCW, at most 0.25; that for IKKK, at most 0.25.
The result for VKWW reads at most 0.25.
The result for VIFG reads at most 0.25.
Turning to FVYK, the enrichment ratio was at most 0.25.
The same measure for DSWF: at most 0.25.
Take PVLR: the enrichment ratio was at most 0.25.
On to HQKV, for which the enrichment ratio was at most 0.25.
Take YARH: the enrichment ratio was at most 0.25.
The same measure for STLG: 14.5; for PLYR: at most 0.25.
In the case of LDEQ, the enrichment ratio is at most 0.25.
The same measure for TRVI: 5.94.
The result for IFDV reads at most 0.25.
Consider HATR, for which the enrichment ratio was at most 0.25.
The result for PWGV reads at most 0.25.
Take YKGE: the enrichment ratio was at most 0.25.
The result for YQPV reads at most 0.25.
For the variant GCLW, the enrichment ratio was 4.75.
With TCLY, the enrichment ratio is at most 0.25.
The same measure for FYND: at most 0.25.
Consider FMMN, for which the enrichment ratio was at most 0.25.
With QGVH, the enrichment ratio is at most 0.25.
Regarding ACVA, the enrichment ratio was determined as 3.46.
Consider APLV, for which the enrichment ratio is at most 0.25.
The same measure for GQLK: at most 0.25; for NENI: at most 0.25.
On to DMSN, for which the enrichment ratio is at most 0.25.
The same measure for PWEI: at most 0.25; for IWAA: at most 0.25.
As to QTDG, the enrichment ratio turned out to be 13.5.
The same measure for RRHM: at most 0.25; for LHPE: at most 0.25; for AWSR: at most 0.25.
For FMCQ, the enrichment ratio was at most 0.25.
IDKI: the enrichment ratio is at most 0.25.
Regarding ILPT, the enrichment ratio is at most 0.25.
The same measure for LIFV: at most 0.25; for FKYP: at most 0.25.
The same measure for MAGG: 8.22.
For the variant NVKW, the enrichment ratio was at most 0.25.
As for RYAK, the enrichment ratio is at most 0.25.
The same measure for WSFT: at most 0.25; for VMVG: at most 0.25; for YVAG: at most 0.25.
The result for QVNH reads at most 0.25; that for TIDH, 1.21.
On to WHGI, for which the enrichment ratio was at most 0.25.
Turning to QIML, the enrichment ratio was at most 0.25.
The result for TRNW reads at most 0.25; that for WKWA, at most 0.25.
With YDPE, the enrichment ratio is at most 0.25.
For the variant SFIN, the enrichment ratio was at most 0.25.
The same measure for KSNT: at most 0.25.
RDFC: the enrichment ratio is at most 0.25.
The same measure for MMAS: 15.4; for GIIW: at most 0.25.
For the variant RIYG, the enrichment ratio was at most 0.25.
In the case of NQNF, the enrichment ratio was at most 0.25.
The same measure for LVPY: at most 0.25.
For ALTE, the enrichment ratio was at most 0.25.
In the case of YPAY, the enrichment ratio was at most 0.25.
The same measure for LRFY: at most 0.25.
With PFFH, the enrichment ratio is at most 0.25.
Turning to ECRM, the enrichment ratio was at most 0.25.
SVPS: the enrichment ratio was at most 0.25.
Take WHMP: the enrichment ratio was at most 0.25.
The same measure for RCGK: at most 0.25.
Regarding VWIT, the enrichment ratio is at most 0.25.
The result for GCYN reads at most 0.25; that for GQSN, at most 0.25.
The same measure for KQKC: at most 0.25; for DLAI: at most 0.25.
The result for LNWR reads at most 0.25.
In the case of WDYK, the enrichment ratio is at most 0.25.
The same measure for YIFP: at most 0.25; for HELL: 1.38.
Consider RRMG, for which the enrichment ratio is at most 0.25.
As for YESQ, the enrichment ratio was at most 0.25.
As for QFWG, the enrichment ratio amounted to 2.61.
The same measure for GIPR: at most 0.25; for ARTF: at most 0.25.
The same measure for LIWV: at most 0.25; for MNFY: at most 0.25.
The result for NHDE reads at most 0.25; that for PIGT, at most 0.25.
Take HFHD: the enrichment ratio is at most 0.25.
The result for KRNM reads at most 0.25.
In the case of DEPD, the enrichment ratio is at most 0.25.
For HTQS, the enrichment ratio is at most 0.25.
The same measure for TLCF: at most 0.25; for YLSM: 0.31.
For SWMA, the enrichment ratio was at most 0.25.
Regarding NQFH, the enrichment ratio is at most 0.25.
The same measure for DHLD: at most 0.25; for SSAM: 10.8.
Consider KRKC, for which the enrichment ratio was at most 0.25.
The same measure for YWDS: at most 0.25; for NEGM: at most 0.25.
